Laboratory results taken from PubChem BioAssay (NCATS).
“And” between values parts separate entries of the source, which are not always exact repeats. Equal entries are not always repeated. Inconclusive results, whose numbers are uncertain, are shown with a selection of clear calls. Where the call is inconclusive, the potency comes from a doubtful curve fit. The source made the active and inactive calls. Calls follow the shape of the dose curve; as a rule, active = well fitted curve in the direction sought with a large enough effect; inconclusive = small, poorly fitted or top-dose-only effect, or another doubt; inactive = no such curve, though single readings can be large; an effect the other way counts as inactive or inconclusive.

What was measured:
KB-3-1 = assay: Cytotoxic Profiling of Annotated Libraries Using Quantitative High-Throughput Screening (AID 1296008); settings: Five cell lines viability, CellTiter-Glo ATP luminescence, 48-72 h; max response: stronger effect = lower value; also: nearly all actives have a fitted effect of over 60% in size
Summary of the method: (§1)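 Cells exposed to compounds for 48 or 72 hr at 37 degrees Celsius. Viability read as ATP-coupled luminescence with CellTiter-Glo after 10 min at room temperature.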

NIH3T3 = assay: as above; settings: Five cell lines viability, CellTiter-Glo ATP luminescence, 48-72 h; max response: stronger effect = lower value
Summary of the method: as §1

UISO = assay: qHTS assay to identify novel small-molecules to repurpose for Merkel cell carcinoma treatment (AID 1296009); settings: MCC and control cell lines, CellTiter-Glo viability, 72 h; series mostly up to 46 µM; also: nearly all actives have a fitted effect of over 60% in size
Summary of the method: (§2)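 Dose-response viability screen; 72 hr exposure at 37 degree celsius; CellTiter-Glo added, 10 min room temperature, luminescence read; RLUs scaled between no-cell and DMSO wells.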

WaGa = assay: as above; settings: MCC and control cell lines, CellTiter-Glo viability, 72 h; series mostly up to 46 µM
Summary of the method: as §2

MKL-1 = assay: as above; settings: MCC and control cell lines, CellTiter-Glo viability, 72 h; series mostly up to 46 µM
Summary of the method: as §2

C33A = assay: Primary qHTS to identify gynecologic anti-cancer compounds using libraries of approved drugs and bioactive compounds (AID 1345084); settings: Gynecologic cancer cell panel viability, ATPlite luminescence, 48 h; series mostly up to 57.5 µM; also: nearly all actives have a fitted effect of over 55% in size
Summary of the method: (§3)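 Cytotoxicity screen measuring ATP content by luciferase luminescence. Each compound is applied at five concentrations for 48 h at 37 C with 5% CO2.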

CAOV3 = assay: as above; settings: Gynecologic cancer cell panel viability, ATPlite luminescence, 48 h; series mostly up to 57.5 µM
Summary of the method: as §3

MCC-13 = assay: qHTS assay to identify novel small-molecules to repurpose for Merkel cell carcinoma treatment (AID 1296009); settings: MCC and control cell lines, CellTiter-Glo viability, 72 h; series mostly up to 46 µM; also: nearly all actives have a fitted effect of over 60% in size
Summary of the method: as §2

MCC-26 = assay: as above; settings: MCC and control cell lines, CellTiter-Glo viability, 72 h; series mostly up to 46 µM
Summary of the method: as §2

MKL-2 = assay: as above; settings: MCC and control cell lines, CellTiter-Glo viability, 72 h; series mostly up to 46 µM
Summary of the method: as §2
Potency is read from the fitted curve at half-maximal effect; tags tell the direction and shape of the fitted curve.

SMILES | Potency (KB-3-1) | Potency (NIH3T3) | Potency (UISO) | Potency (WaGa) | Potency (MKL-1) | Potency (C33A) | Potency (CAOV3) | Potency (MCC-13) | Potency (MCC-26) | Potency (MKL-2)
CCc1cncnc1N1CCN(Cc2nc3ccc(C(F)(F)F)cc3[nH]2)CC1 | inconclusive: 18.4 µM [inhibitor, partial curve] | inconclusive: 37.2 µM [inhibitor, single point] and inconclusive: 8.2 µM [inhibitor, partial curve, poor fit] | inconclusive: 18700 nM [inhibitor, partial curve] | inconclusive: 18700 nM [inhibitor, partial curve] |  |  |  |  |  | 
CCN(CC)Cc1ccc2cc(COC(=O)Nc3ccc(C(=O)NO)cc3)ccc2c1 | active: 1.16 µM | active: 2.31 µM | active: 3720 nM | active: 526 nM | active: 1870 nM | active: 3.55 µM | active: 7.94 µM |  |  | 
Cc1ccc(NC(=O)c2cccc(C(C)(C)C#N)c2)cc1Nc1ccc2ncn(C)c(=O)c2c1 | inconclusive: 23.5 µM [inhibitor, single point] | active: 16.6 µM | inconclusive: 37200 nM [inhibitor, partial curve, poor fit] | inactive |  |  |  | inconclusive: 1870 nM [inhibitor, full curve] |  | 
COc1ccc(-c2ccc3c(N4CCOC[C@H]4C)nc(N4CCOC[C@H]4C)nc3n2)cc1CO | active: 0.0118 µM |  | inconclusive: 52.6 nM [inhibitor, full curve] | inconclusive: 66.2 nM [inhibitor, full curve] | inconclusive: 935 nM [inhibitor, full curve] |  |  | inconclusive: 296 nM [inhibitor, full curve] | inconclusive: 372 nM [inhibitor, full curve] | inconclusive: 296 nM [inhibitor, full curve]
CCCCc1oc2ccc(NS(C)(=O)=O)cc2c1C(=O)c1ccc(OCCCN(CCCC)CCCC)cc1 | inconclusive: 29.1 µM [inhibitor, single point] | inconclusive: 37.2 µM [inhibitor, single point] and active: 9.44 µM | inconclusive: 21100 nM [inhibitor, single point] | inconclusive: 29.6 µM [inhibitor, single point] and inconclusive: 21.1 µM [inhibitor, single point] |  | inconclusive: 28.2 µM [cytotoxic, single point] and inconclusive: 39.8 µM [cytotoxic, single point] | inconclusive: 22.4 µM [cytotoxic, single point] and inconclusive: 35.5 µM [cytotoxic, single point] |  | inconclusive: 29900 nM [inhibitor, single point] | 
CC(C)CC(=O)Nc1n[nH]c2c1CN(C(=O)C1CCN(C)CC1)C2(C)C | active: 2.35 µM and active: 2.91 µM | inconclusive: 20.6 µM [inhibitor, partial curve] | active: 5260 nM | inconclusive: 296 nM [inhibitor, full curve] | inconclusive: 1660 nM [inhibitor, full curve] | active: 6.31 µM | inconclusive: 1.41 µM [cytotoxic, single point] |  | active: 18700 nM | active: 2640 nM
CC[C@]1(O)C[C@H]2CN(CCC3=c4ccccc4=N[C]3[C@@](C(=O)OC)(c3cc4c(cc3OC)N(C)[C@H]3[C@@](O)(C(N)=O)[C@H](O)[C@]5(CC)C=CCN6CC[C@]43[C@@H]65)C2)C1 | active: 0.0059 µM |  | inconclusive: 2.6 nM [inhibitor, full curve] | inconclusive: 2.6 nM [inhibitor, full curve] | active: 3.7 nM |  |  | inconclusive: 1660 nM [inhibitor, full curve] | inconclusive: 46.9 nM [inhibitor, full curve] | active: 46.9 nM
CCCCOc1c(C(=O)c2c(F)cc(C)cc2F)cnc2n[nH]cc12 | inconclusive: 2.91 µM [inhibitor, partial curve] | active: 16.6 µM and inconclusive: 3.66 µM [inhibitor, full curve] | inconclusive: 2350 nM [inhibitor, full curve] | inactive |  |  | inactive |  |  | inactive
